Experimental data taken from paper PMC12436592 (Nature Communications, 2025).
Several values for one entry are separate records, joined by “and”; a condition that tells them apart may be missing. Equal values may be shown once. This continues a long series; more values of the same kind are listed elsewhere.

Biological target: T1, hP2X7R (Homo sapiens, UniProt Q99572)
T1 sequence (Q99572 1-595): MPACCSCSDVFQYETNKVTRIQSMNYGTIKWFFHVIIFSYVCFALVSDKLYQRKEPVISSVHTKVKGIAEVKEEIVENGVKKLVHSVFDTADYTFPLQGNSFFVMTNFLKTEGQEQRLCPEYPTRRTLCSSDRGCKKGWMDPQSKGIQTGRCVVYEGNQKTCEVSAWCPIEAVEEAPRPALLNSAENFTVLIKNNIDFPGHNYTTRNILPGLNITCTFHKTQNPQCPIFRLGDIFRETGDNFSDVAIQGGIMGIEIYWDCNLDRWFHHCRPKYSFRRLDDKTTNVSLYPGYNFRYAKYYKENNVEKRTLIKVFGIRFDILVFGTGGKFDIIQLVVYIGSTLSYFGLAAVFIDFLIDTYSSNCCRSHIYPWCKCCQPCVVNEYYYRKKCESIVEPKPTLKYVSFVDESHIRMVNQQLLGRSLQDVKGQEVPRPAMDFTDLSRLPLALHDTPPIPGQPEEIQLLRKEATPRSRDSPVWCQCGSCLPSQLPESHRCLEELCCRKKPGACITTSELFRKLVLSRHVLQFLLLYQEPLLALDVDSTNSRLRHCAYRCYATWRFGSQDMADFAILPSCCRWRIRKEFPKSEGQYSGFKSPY
Assay: TEVC determination of antagonist binding kinetics in Xenopus oocytes
Assay type: cell-based
Design: expressed in transfected cells; host or cells: Xenopus laevis oocytes injected with capped cRNA (modified pUC19 vector, T7)
Settings: for on-rate to hP2X7R, Response [%]: time 4 min, single replicates
Description: Xenopus laevis frogs were from Nasco International (Fort Atkinson, WI) and kept at the Core Facility Animal Models (CAM) of the Biomedical Center (BMC) of LMU Munich, Germany (Az:4.3.2–5682/LMU/BMC/CAM) in accordance with the EU Animal Welfare Act. Ovaries were surgically extracted (ROB_54-011-AZ 2532.Vet_02-23-166), treated with collagenase (Nordmark, Uetersen, Germany 1.0–1.5 mg/mL, ≥2 at RT) and defolliculated (15-min treatment in Ca^2+-free oocyte Ringer (90 mM NaCl, 1 mM KCl, 2 mM MgCl2, 5 mM HEPES), respectively. 50 nL of cRNA (0.5 µg/µL) were injected using a Nanoject II injector (Science Products, Drummond) and oocytes were kept in ND96 (96 mM NaCl, 2 mM KCl, 1 mM MgCl2, 1 mM CaCl2, 5 mM HEPES, pH 7.4–7.5). The plasmid containing the hP2X7R was linearized with NotI-HF (NEB) and purified with the MinElute Reaction Cleanup Kit (Qiagen, Hilden, Germany). Capped cRNA was synthesized using the mMESSAGE mMACHINE™ T7 Transcription Kit (ThermoFisher Scientific, Schwerte, Germany) and dissolved in nuclease-free water (500 ng/µL). Injected oocytes were allowed to express for at least 36 hours.
Two-electrode voltage clamp recordings were performed at room temperature and a holding potential of −70 mV using a Turbo Tec-05X Amplifier (npi electronic, Tamm, Germany), a magnetic valve system, and CellWorks E 5.5.1 software. Currents were filtered at 1 kHz and digitized at 200 Hz. Electrode resistances were below 1.2 MΩ. […] Recordings were performed in ND96.
After obtaining reproducible agonist-evoked responses, solutions were switched to antagonist-containing recording solutions with and without ATP to determine association rates. Responses following antagonist application were normalized to the preceding, stabilized agonist responses. Dissociation was determined in 1- or 2 min intervals when currents were reduced to <10%. Association curves were fit to the data by the equation % Response = (100-Plateau)*exp(-kobs*Time) + Plateau, where Plateau indicates the response at equilibrium and kobs the experimentally determined on-rate. All data were analyzed using Prism software (GraphPad Software, Inc., Version 8.3.0, San Diego, CA) and are presented as means ± SD from at least three oocytes. […] The final concentration of DMSO in the recording solution was ≤1%.
Supplementary Fig. 10: Kinetics of ligands binding to the hP2X7R measured by TEVC. (A) […]
All data represented as mean ± S.D. with n=3, 7, 7, and 7 f or the experiments performed at 3 nM, 10 nM, 30 nM, and 100 nM […]
(B) Representative current traces for t he activation
(C) On- and off-r at e constants and Ki
Observed on- r at es kobs were determined by fitting the data (Fig. 4H, Supplementary Fig. 10A) to the function: % response = (100- Plateau)*exp(-kobs*time)+Plateau and plotted against the antagonist concentrations to obtain koff according to k obs=kon*F+koff. Assuming a (simplified) 1:1 binding model, of f-r at e constant koff and Ki values were estimated using the previous formulas as well as Ki=koff/kon. […]
determined by Ca2+ imaging (18 nM, Fig. 3B ) and the binding equilibrium reached at each […]
values of UB-MBX-46 c annot reflect an accurate value due to the nearly negligible dissociation on the timescale of the experiment. If k off was estimated based on the IC50 value (IC50 = koff/kon panel D), a more accurate koff value can be obtained. Numbers in square brackets are 95% Confidence Intervals. *values obtained from an extrapolated dose inhibition curve from D . (D) The plateau values, representing the binding equilibrium, were used to generate dose inhibition

| on-rate to hP2X7R, Response [%] (30 nM) | Response [%], on-rate to hP2X7R (3 nM, 2 min) | Response [%], on-rate to hP2X7R (3 nM, 4 min) | Response [%], on-rate to hP2X7R (3 nM, 6 min) | Response [%], on-rate to hP2X7R (3 nM, 28 min) | Response [%], on-rate to hP2X7R (3 nM, 30 min) | Response [%], on-rate to hP2X7R (10 nM, 2 min) | Response [%], on-rate to hP2X7R (10 nM, 4 min) | Response [%], on-rate to hP2X7R (10 nM, 6 min) | Response [%], on-rate to hP2X7R (30 nM, 2 min) | Response [%], on-rate to hP2X7R (30 nM, 4 min) | Response [%], on-rate to hP2X7R (100 nM, 2 min, 300 µM ATP pulses, single oocytes) | Response [%], on-rate to hP2X7R (100 nM, 4 min) | Response [%], on-rate to hP2X7R (100 nM, 6 min) | Structure (SMILES) | on-rate to hP2X7R, Response [%] (100 nM) |
| --- | --- | --- | --- | --- | --- | --- | --- | --- | --- | --- | --- | --- | --- | --- | --- |
| 30.6% |  |  |  |  |  |  |  |  |  |  |  |  |  | O=C(NNc1ccccc1Cl)C12CC3CC(CC(C3)C1)C2 [UB-MALT-P30] | 1.4% and 0% and 4.1% and 14.5% and 10.6% and 12.6% |
|  | 87.6% and 93.8% and 93% | 86.5% and 89.7% and 90% | 84.6% and 85.5% and 87.3% | 66.6% and 70% | 66.7% and 64.7% and 63.7% | 78.8% and 76.6% and 83.6% and 80.5% | 65.6% and 66.4% and 71.6% and 66.5% | 54.7% and 52.1% and 57.7% and 54.3% | 65.3% and 46.7% and 50.8% and 53.4% | 45.3% and 24.9% and 29.9% and 32% | 24.7% and 20.8% and 25.6% and 27.8% | 6.2% and 6.1% and 5.5% and 9% | 2.1% and 1.9% and 1.8% and 3.6% | CC12CC3CC1(C)C1(C)CC3(C(=O)NNc3ccccc3Cl)CC21C [UB-MBX-46] |  |
